Drawing on PubChem BioAssay AID463173 (ICCB-Longwood Screening Facility, Harvard Medical School, 2010), this text covers survival for 89 compounds.

Structures are written as SMILES. The whole screen tested about 52,000 compounds, of which about 1,700 (3.3%) were called active. No stated cut-off is given here; in the data, active means survival mostly below about 52% (no sharp cut-off); inactive means mostly above about 56%. The list shows a part of the results.

The assay deals with Wild type. Nature of the assay: S. aureus survival, RN4220 and DeltatarO strains – OD600, teichoic acid synthesis inhibitors, primary screen (AID 463173). Conditions: S. aureus RN4220 wild type/DeltatarO growth, OD600, 18 h, active compounds read low, screened at 18.75 µg/mL (by protocol).
In the case of `CC(=O)Nc1ccc(Nc2c(CCC(C)C)c(C)c(C#N)c3nc4ccccc4n23)cc1`, the survival was inactive: 142%.
Regarding `Cn1ncc(Cl)c1C(=O)NC(=S)Nc1sc2c(c1C#N)CCCC2`, the survival is inactive: 107%.
As for `Cc1ccccc1C(=O)Nc1nnc(S(=O)(=O)N(C)c2ccc(Cl)cc2)s1`, the survival was inactive: 64%.
Under `Cc1ccccc1Cn1c(=O)n(CCc2ccccc2)c(=O)c2sc3ccccc3c21` stands inactive: 86%.
Consider `COC(=O)c1sccc1S(=O)(=O)N(CC(=O)Nc1ccc(C)c(F)c1)c1ccc(C)c(C)c1`, for which the survival is active: -1%.
As for `NC1=NC2=C(CCCC2)C2(CCCCC2)S1`, the survival is inactive: 106%.
For `Cc1ccc(-c2nn(C)c(=O)c3ccccc23)cc1S(=O)(=O)NCCCN(C)C`, the survival is inactive: 71%.
`CC(=O)Nc1ccc(NC(=O)C(c2ccccc2)N2Cc3ccccc3C2=O)cc1` (centres undefined): the survival is inactive: 123%.
As for `COC(=O)c1ccc(-c2nc(-c3ccc(OC)c(OC)c3)no2)cc1`, the survival is inactive: 83%.
For `CCc1ccc(C(=O)NC2=NC(c3cc(OC)ccc3OC)CC(=O)N2)cc1` (centres undefined), the survival was inactive: 98%.
In the case of `COc1ccc(-c2cc(C(F)(F)F)n3nc(C(=O)Nc4sc5c(c4C(=O)OC(C)C)CCC(C)C5)cc3n2)cc1` (centres undefined), the survival was inactive: 80%.
Turning to `CCCN(CCC)C(=O)C1CCCN(S(=O)(=O)c2cc(Br)cc3c2N(C(=O)CC)CC3)C1` (centres undefined), the survival was inactive: 92%.
For `O=C(Nc1ccc(-c2nc3cc(NC(=O)c4ccc(Cl)cc4)ccc3o2)cc1)c1ccc(Cl)cc1`, the survival was inactive: 69%.
Under `O=C(c1ccc2c(c1)N(Cc1ccc(Cl)cc1)C(=O)c1ccccc1S2(=O)=O)N1CCN(Cc2ccccc2)CC1` stands inactive: 92%; under `Cc1cc(C)cc(NC(=O)CCc2c(C)nc3c(c2C)c(=O)n(C)c(=O)n3C)c1`, inactive: 83%.
For the compound `CCc1ccc(-n2nc(CO)c(C(=O)NCc3cccnc3)n2)cc1`, the survival was inactive: 87%.
`COc1ccc(CCCc2n[nH]c(=S)n2C)cc1C`: the survival is inactive: 110%.
As to `Cc1nc2ccc(S(=O)(=O)NC(C(=O)N3CCN(c4cccc(Cl)c4)CC3)C(C)C)cc2s1` (centres undefined), the survival is inactive: 96%.
As to `O=C(NC1CCCCC1)NC1CCN(CC(=O)c2ccc(Cl)cc2)CC1`, the survival was inactive: 106%.
For `COc1ccc(N2C(=O)CCSC23C(=O)N(Cc2ccc(F)cc2)c2ccccc23)cc1` (centres undefined), the survival is inactive: 70%.
Consider `Cc1ccc(-c2onc(C)c2C)cc1S(=O)(=O)Nc1cccc(Cl)c1C`, for which the survival is inactive: 55%.
Take `O=S(=O)(c1ccc(Br)cc1)c1nnn2c1nc(NCCc1ccccc1)c1sccc12`: the survival is inactive: 42%.
Take `Cc1ccc(CCNC(=O)CCn2nc(-c3ccc(Cl)cc3)ccc2=O)cc1`: the survival is inactive: 60%.
On to `Cc1cn2c(=O)c(S(=O)(=O)Nc3ccc(N4CCOCC4)cc3)c(C)nc2s1`, for which the survival was inactive: 94%.
In the case of `Cc1nc(N2CCCC2)ncc1C(=O)NCc1ccc(F)cc1` it was inactive: 68%; in that of `CC1CCN(S(=O)(=O)c2cc(C(=O)NCc3ccccc3)n(C)c2)CC1`, inactive: 71%; in that of `COc1cc2ncc3c(-c4ccccc4)nn(CC(=O)NC4CCCCC4)c3c2cc1OC`, inactive: 79%.
Consider `COCCNC(=O)c1cnn(-c2cccc(C)c2)c1-n1cccc1`, for which the survival is inactive: 99%.
As for `CN(C(=O)c1ccc2c(c1)N(Cc1ccc(F)cc1)C(=O)c1ccccc1S2(=O)=O)C1CCCCC1`, the survival was inactive: 84%.
Under `COc1ccc(C(=O)NNc2ncnc3c2cnn3-c2ccc(C)cc2C)cc1` stands active: -3%; under `CCC(CC)C(=O)Nc1nnc(S(=O)(=O)N2c3ccccc3CC2C)s1` (centres undefined), inactive: 83%; under `CCOCCCn1c(=N)c(C(=O)NC(C)c2ccccc2)cc2c(=O)n3cccc(C)c3nc21` (centres undefined), inactive: 131%.
For `COc1ccc(C2=C(C)C(N3CCN(c4ccc(OC)cc4)CC3)=NS2(=O)=O)cc1`, the survival was inactive: 88%.
On to `COc1ccc(CNC(=O)C(OC(=O)c2ccco2)c2ccc(C)cc2)cc1` (centres undefined), for which the survival is inactive: 106%.
On to `Cc1ccc2occ(CC(=O)Nc3ccc(Cl)c(C(F)(F)F)c3)c2c1`, for which the survival was inactive: 71%.
In the case of `Cc1cc(N2CCC(C(=O)Nc3ccccc3Cl)CC2)n2nc(C)c(-c3ccc(Cl)cc3)c2n1` it was inactive: 85%; in that of `Fc1cccc(-c2nnn3c2nc(NCc2ccc4c(c2)OCO4)c2ccccc23)c1`, inactive: 133%.
Turning to `CCOC(=O)Cn1c(=O)oc2cc(S(=O)(=O)NC(C)c3ccccc3)ccc21` (centres undefined), the survival is inactive: 66%.
Regarding `COC(=O)c1nc2n(n1)C(c1cc(OC)ccc1OC)C=C(c1ccc(Br)cc1)N2` (centres undefined), the survival was inactive: 69%.
In the case of `C=C(C)CN1N=C(C(C)(C)C)CC1=O` it was inactive: 100%.
As for `CCc1ccc(CN(C(=O)Nc2cccc(Cl)c2)c2ccccn2)cc1`, the survival was inactive: 104%.
`O=C(c1ccccc1F)N1c2nc(-c3ccco3)nn2C2(CCCCC2)[C@@H]2CCCC[C@@H]21`: the survival is inactive: 93%.
Under `Cc1c(Cl)cccc1NS(=O)(=O)c1ccc(NS(=O)(=O)c2ccc3c(c2)OCCO3)cc1` stands inactive: 34%; under `COc1ccc(Cl)cc1NC(=O)c1cnc(N2CCCCC2)c2ccccc12`, inactive: 80%.
In the case of `COc1ccccc1CNC(=O)c1ccc(-n2c(C)cc3c2CCCC3)cc1`, the survival was inactive: 85%.
Regarding `CCOC(=O)c1ccccc1NC(=O)N1CC(C)Oc2ccc(C)cc21` (centres undefined), the survival is inactive: 100%.
For `CCOc1ccc(NC(=O)C2CCN(S(=O)(=O)c3c(C)noc3/C=C/c3ccco3)CC2)cc1`, the survival is inactive: 73%.
For `COC(=O)CNc1ccc(C)c(C)c1`, the survival was inactive: 117%.
For the compound `CCCCOC(=O)/C(C#N)=C\c1ccc(-c2ccc(Cl)cc2)o1`, the survival was inactive: 76%.
Under `CCOc1ccc(NC(=O)CCn2cccn2)cc1` stands inactive: 89%; under `Cc1ccc(-c2nc3ccccn3c2Nc2ccc3c(c2)OCCO3)o1`, inactive: 62%.
As for `O=C1CN(C(=O)COc2ccc(Cl)cc2)C(c2ccc(F)cc2)c2cc(Cl)ccc2N1` (centres undefined), the survival is inactive: 39%.
On to `CCOC(=O)N1CCN(C(=O)c2ccc3c(c2)N(Cc2cccc(Cl)c2)C(=O)c2ccccc2S3=O)CC1` (centres undefined), for which the survival was inactive: 81%.
As for `CC(=O)c1ccc(C(=O)N(Cc2cccnc2)c2nc3c(C)c(C)ccc3s2)cc1`, the survival was active: -3%.
In the case of `COc1cc(NC(=O)C(=O)Nc2ccc3nc4n(c(=O)c3c2)CCCCC4)cc(OC)c1OC`, the survival was inactive: 80%.
Take `O=C(Nc1ccc(Br)cc1)C1CCN(c2ncccn2)CC1`: the survival is inactive: 89%.
Under `Cc1ccc(NC(=O)N2CCN(C)c3ncccc32)cc1C` stands inactive: 81%; under `O=C(CN1C(=O)COc2ccc(S(=O)(=O)N3CCCCCC3)cc21)NCCc1ccccc1`, inactive: 92%; under `COc1cc(OC)c(N(C)C(=O)Cn2ncc3c(=O)oc4ccccc4c32)cc1Cl`, inactive: 73%.
Take `Cc1ccc(CN2C(=O)N(c3ccccc3)C(=O)C2CC(=O)Nc2ccccc2)cc1` (centres undefined): the survival was inactive: 78%.
For `COCCNC(=O)c1c(NC(=O)c2cc(=O)c3cc(Cl)ccc3o2)sc2c1CCCC2`, the survival was inactive: 85%.
As to `COC(=O)c1ccccc1NC(=O)N1CCC(n2c(C)nc3cccnc32)CC1`, the survival is inactive: 115%.
`O=C(Nc1ccccc1)C1C2C=CC3(O2)C1C(=O)N(C1CCCC1)C3C(=O)NC1CCCCC1` (centres undefined): the survival is inactive: 103%.
For `COc1ccccc1NC(=O)Cn1nnc(C(=O)Nc2ccccc2Br)c1N`, the survival is inactive: 85%.
For `CCc1cccc(C)c1NC(=O)Cn1cc2c(n1)CCCCC2`, the survival was inactive: 82%.
In the case of `CCC(C)NC(=O)CSc1nc(-c2ccc(F)cc2)cc(C(F)(F)F)n1` (centres undefined), the survival is inactive: 81%.
In the case of `COC(=O)c1ccccc1NC(=O)c1cnc2sc(N3CCOCC3)nn2c1=O` it was inactive: 140%.
For `CC(=O)N1CCN(c2csc3ccc(Br)cc3c2=O)CC1`, the survival is inactive: 74%.
For the compound `Cc1ccc(CNC(=O)c2cc(=O)c3cc(C)cc(C)c3o2)cc1`, the survival was inactive: 105%.
As for `CCOc1ccc(NC(=O)c2cc3cc4cc(OC)ccc4nc3s2)cc1`, the survival was inactive: 80%.
In the case of `COc1ccc(Cn2nnnc2CN2CCc3ccccc32)cc1`, the survival was inactive: 109%.
Consider `CCc1nn(CCCC(=O)NCc2cc(Br)ccc2OC)c(=O)c2cc3occc3n12`, for which the survival was inactive: 78%.
On to `COc1cccc(C(=O)Nc2cccc(C(=O)OCc3cc(=O)n4c5c(sc4n3)CCCC5)c2)c1`, for which the survival is inactive: 88%.
In the case of `Cc1cccc(NS(=O)(=O)c2ccc3c(c2)OCC(C(=O)N2CCCC2)O3)c1C` (centres undefined), the survival was inactive: 60%.
As to `O=c1c2cccnc2n(Cc2cccc(F)c2)c(=O)n1Cc1ccccc1Cl`, the survival was inactive: 93%.
As to `Cc1ccc(-c2nnc(Nc3ccc(O)cc3)c3ccccc23)cc1S(=O)(=O)N1CCCCC1`, the survival is inactive: 119%.
Under `COc1ccc2cc(CNc3ccc(C)cc3)c(=O)n(CC(=O)Nc3cccc(C(F)(F)F)c3)c2c1` stands inactive: 88%.
Turning to `CCOC(=O)CSc1nc2c(sc3cccc(F)c32)c(=O)n1Cc1ccc(OC)cc1`, the survival was inactive: 72%.
In the case of `O=C(NCCS(=O)(=O)N1CCN(c2ccc(F)cc2)CC1)C1CC(=O)N(c2ccccc2)C1` (centres undefined), the survival is inactive: 68%.
As to `CS(=O)(=O)Cc1nc2ccccc2oc1=O`, the survival is inactive: 92%.
Regarding `CC(C)(C)C(=O)Nc1ccc2nc(SCC(=O)N3CCc4ccccc43)sc2c1`, the survival is inactive: 105%.
`Cc1ccc(S(=O)(=O)c2cn(CC(=O)Nc3ccc4c(c3)OCO4)c3ccccc3c2=O)cc1C`: the survival is inactive: 117%.
Under `COc1ccccc1-n1c(=O)c2c3c(sc2n(Cc2ccccc2F)c1=O)CN(C(C)=O)CC3` stands inactive: 128%.
Turning to `CC(C)c1cc(-c2nc(-c3ccc(Br)cc3)no2)n[nH]1`, the survival is inactive: 78%.
As to `Cc1cc2c(n1-c1ccc(C(=O)NCCc3ccccc3)cc1)CCC(C)C2` (centres undefined), the survival was inactive: 73%.
Regarding `CCCN(Cc1cccs1)C(=O)Nc1ccc(Br)cc1F`, the survival is inactive: 76%.
For `COc1cc2nc(C3CCC3)n(NC(=O)c3ccccc3C)c(=O)c2cc1OC`, the survival is inactive: 115%.
In the case of `CCCN1CCN(CCNC(=O)Nc2ccccc2OCC)CC1` it was inactive: 86%; in that of `CCN1CCN(c2ncc3c(n2)CCN(Cc2ccc(OC)c(OC)c2)C3)CC1`, inactive: 63%.
